# Data taken from the supplement of paper PMC10037445.
# “And” between values parts separate entries of the source, which are not always exact repeats. Equal values may be shown once. Whole data set: some 2,900 compounds, median “IRF Lucia reporter activity, fold change vs agonist alone” near 0.9, cut for the highest 2% near 2.8. The list shows a part of the results.
# What was measured:
# [1] = system: RAW-Dual; assay: IRF Lucia reporter activity, fold change vs agonist alone; higher = enhanced IRF activity; conditions: agonist: MPLA (TLR4) […]
# Summary of the method: (§1)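 RAW-Dual macrophages (50,000 cells/well in DMEM, 384-well plates) received 50 nL of library stock by pin tool, then a PRR agonist 1 h later, and were kept at 37 °C, 5% CO2. After 20 hours, supernatant was read for IRF by QuantiLuc luminescence and for NF-κB by QuantiBlue absorbance at 620 nm. Reporter activity is fold change over agonist-alone wells. Cytotoxic wells had IncuCyte confluency below 70% of agonist controls in both mask sets.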
# [2] = system: RAW-Dual; assay: IRF Lucia reporter activity, fold change vs agonist alone; cytotoxicity flag (confluency mask): not cytotoxic; higher = enhanced IRF activity
# Summary of the method: as §1
# [3] = system: RAW-Dual; assay: IRF Lucia reporter activity, fold change vs agonist alone; cytotoxicity flag (confluency mask): cytotoxic (confluency <70% of control); higher = enhanced IRF activity
# Summary of the method: as §1
# [4] = library stock concentration (final ~1000-fold dilution): 10 mM, cytotoxicity flag (confluency mask): not cytotoxic
# [5] = agonist: 3'3'-cGAMP (STING) 10 ug/mL
structure (smiles),measurement,setting,value
O=c1ncn2nc(Sc3ccc(F)cc3F)ccc2c1-c1c(Cl)cccc1Cl,IRF Lucia reporter activity,[1]; [4],0.649
O=c1ncn2nc(Sc3ccc(F)cc3F)ccc2c1-c1c(Cl)cccc1Cl (library stock concentration (final ~1000-fold dilution): 10 mM),IRF Lucia reporter activity,[2]; [5],0.886
same,IRF Lucia reporter activity,[2]; agonist: LPS (TLR4) 0.1 ug/mL,0.829
O=c1[nH]cc(F)c(=O)[nH]1 (library stock concentration (final ~1000-fold dilution): 10 mM),IRF Lucia reporter activity,[3]; [5],1.24
same,IRF Lucia reporter activity,[3]; agonist: LPS (TLR4) 0.1 ug/mL,1.48
O=c1[nH]cc(F)c(=O)[nH]1,IRF Lucia reporter activity,"[1]; library stock concentration (final ~1000-fold dilution): 10 mM, cytotoxicity flag (confluency mask): cytotoxic (confluency <70% of control)",1.17
Cl.Nc1c(Br)cc(Br)cc1CNC1CCC(O)CC1 (stereo unspecified),IRF Lucia reporter activity,"[1]; library stock concentration (final ~1000-fold dilution): 2 mM, cytotoxicity flag (confluency mask): not cytotoxic",1.14
Cl.Nc1c(Br)cc(Br)cc1CNC1CCC(O)CC1 (stereo unspecified) (library stock concentration (final ~1000-fold dilution): 2 mM),IRF Lucia reporter activity,[2]; [5],0.844
same,IRF Lucia reporter activity,[2]; agonist: LPS (TLR4) 0.1 ug/mL,1.01
CC(=O)Oc1cc(C(F)(F)F)ccc1C(=O)O (library stock concentration (final ~1000-fold dilution): 10 mM),IRF Lucia reporter activity,[2]; [5],1.03
same,IRF Lucia reporter activity,[2]; agonist: LPS (TLR4) 0.1 ug/mL,0.337
CC(=O)Oc1cc(C(F)(F)F)ccc1C(=O)O,IRF Lucia reporter activity,[1]; [4],1.04
O=c1c(O[C@@H]2OC[C@@H](O)[C@H](O)[C@H]2O)c(-c2ccc(O)c(O)c2)oc2cc(O)cc(O)c12 (library stock concentration (final ~1000-fold dilution): 10 mM),IRF Lucia reporter activity,[3]; [5],0.0133
same,IRF Lucia reporter activity,[3]; agonist: LPS (TLR4) 0.1 ug/mL,0.0292
CN1CCOC(c2ccccc2)c2ccccc2C1.Cl (stereo unspecified),IRF Lucia reporter activity,"[1]; library stock concentration (final ~1000-fold dilution): 10 mM water, cytotoxicity flag (confluency mask): not cytotoxic",1.23
CN1CCOC(c2ccccc2)c2ccccc2C1.Cl (stereo unspecified) (library stock concentration (final ~1000-fold dilution): 10 mM water),IRF Lucia reporter activity,[2]; [5],1.13
same,IRF Lucia reporter activity,[2]; agonist: LPS (TLR4) 0.1 ug/mL,0.906
N#Cc1cc(-c2ccnc(Nc3ccc(N4CCOCC4)cc3)n2)ccc1OC1CCOCC1 (library stock concentration (final ~1000-fold dilution): 10 mM),IRF Lucia reporter activity,[2]; [5],0.0161
same,IRF Lucia reporter activity,[2]; agonist: LPS (TLR4) 0.1 ug/mL,0.0172
C[C@@H]1O[C@@H](Oc2c(-c3ccc(O)c(O)c3)oc3cc(O)cc(O)c3c2=O)[C@H](O)[C@H](O)[C@H]1O (library stock concentration (final ~1000-fold dilution): 10 mM),IRF Lucia reporter activity,[2]; [5],0.524
same,IRF Lucia reporter activity,[2]; agonist: LPS (TLR4) 0.1 ug/mL,0.524
CN(C)CCCNC(=O)c1ccc(-c2cc(O)c3ncccc3c2)cc1 (library stock concentration (final ~1000-fold dilution): 10 mM),IRF Lucia reporter activity,[2]; [5],0.336
same,IRF Lucia reporter activity,[2]; agonist: LPS (TLR4) 0.1 ug/mL,0.965
CN(C)CCCNC(=O)c1ccc(-c2cc(O)c3ncccc3c2)cc1,IRF Lucia reporter activity,[1]; [4],1.05
Cc1nn(C)c2nc(NNC(=O)Nc3cc(Cl)nc(Cl)c3)cc(C(C)C)c12,IRF Lucia reporter activity,[1]; [4],1.13
Cc1nn(C)c2nc(NNC(=O)Nc3cc(Cl)nc(Cl)c3)cc(C(C)C)c12 (library stock concentration (final ~1000-fold dilution): 10 mM),IRF Lucia reporter activity,[2]; [5],0.557
same,IRF Lucia reporter activity,[2]; agonist: LPS (TLR4) 0.1 ug/mL,1.01
O=C(O)Cc1ccccc1Nc1c(Cl)cccc1Cl (library stock concentration (final ~1000-fold dilution): 10 mM),IRF Lucia reporter activity,[2]; [5],0.986 and 1.02
same,IRF Lucia reporter activity,[2]; agonist: LPS (TLR4) 0.1 ug/mL,0.611 and 0.994
Cc1c(NC(=O)c2ccc(C(C)(C)C)cc2)cccc1-c1cn(C)c(=O)c(Nc2ccc(C(=O)N3CCOCC3)cc2)n1 (library stock concentration (final ~1000-fold dilution): 10 mM),IRF Lucia reporter activity,[2]; [5],0.982
same,IRF Lucia reporter activity,[2]; agonist: LPS (TLR4) 0.1 ug/mL,0.964
Cc1c(NC(=O)c2ccc(C(C)(C)C)cc2)cccc1-c1cn(C)c(=O)c(Nc2ccc(C(=O)N3CCOCC3)cc2)n1,IRF Lucia reporter activity,[1]; [4],0.98
COc1cc(F)c(F)c(Nc2ccc(I)cc2F)c1NS(=O)(=O)C1(CC(O)CO)CC1 (stereo unspecified) (library stock concentration (final ~1000-fold dilution): 10 mM),IRF Lucia reporter activity,[2]; [5],0.508
same,IRF Lucia reporter activity,[2]; agonist: LPS (TLR4) 0.1 ug/mL,0.349
COc1cc(F)c(F)c(Nc2ccc(I)cc2F)c1NS(=O)(=O)C1(CC(O)CO)CC1 (stereo unspecified),IRF Lucia reporter activity,[1]; [4],0.699
Br.Br.NCCCCCNCC12CC3CC(CC(C3)C1)C2,IRF Lucia reporter activity,[1]; [4],1.03
Br.Br.NCCCCCNCC12CC3CC(CC(C3)C1)C2 (library stock concentration (final ~1000-fold dilution): 10 mM),IRF Lucia reporter activity,[2]; [5],0.793
same,IRF Lucia reporter activity,[2]; agonist: LPS (TLR4) 0.1 ug/mL,0.958
CN1CCN(CCCNc2ncc(Cl)c(-c3cc4c(C(=O)NC5CC5)cccc4s3)n2)CC1 (library stock concentration (final ~1000-fold dilution): 10 mM),IRF Lucia reporter activity,[3]; [5],0.204
same,IRF Lucia reporter activity,[3]; agonist: LPS (TLR4) 0.1 ug/mL,0.0765
CC[N+](CC)(CC)CC (library stock concentration (final ~1000-fold dilution): 10 mM),IRF Lucia reporter activity,[2]; [5],1.01
same,IRF Lucia reporter activity,[2]; agonist: LPS (TLR4) 0.1 ug/mL,0.826
CC[N+](CC)(CC)CC,IRF Lucia reporter activity,[1]; [4],0.993
CCN(CC)Cc1cc(Nc2ccnc3cc(Cl)ccc23)ccc1O.Cl.Cl.O.O (library stock concentration (final ~1000-fold dilution): 10 mM),IRF Lucia reporter activity,[2]; [5],0.802
same,IRF Lucia reporter activity,[2]; agonist: LPS (TLR4) 0.1 ug/mL,1.25
CCN(CC)Cc1cc(Nc2ccnc3cc(Cl)ccc23)ccc1O.Cl.Cl.O.O,IRF Lucia reporter activity,[1]; [4],1.21
